Some of the results follow. Values were computed here from the reads of four pooled replicates and scatter widely.
The sequences below were run against T1, Pho4 (S. cerevisiae) (UniProt P07270) (assay: relative binding free energy (BET-seq); higher = weaker binding). Conditions: reference: library average.
T1 sequence: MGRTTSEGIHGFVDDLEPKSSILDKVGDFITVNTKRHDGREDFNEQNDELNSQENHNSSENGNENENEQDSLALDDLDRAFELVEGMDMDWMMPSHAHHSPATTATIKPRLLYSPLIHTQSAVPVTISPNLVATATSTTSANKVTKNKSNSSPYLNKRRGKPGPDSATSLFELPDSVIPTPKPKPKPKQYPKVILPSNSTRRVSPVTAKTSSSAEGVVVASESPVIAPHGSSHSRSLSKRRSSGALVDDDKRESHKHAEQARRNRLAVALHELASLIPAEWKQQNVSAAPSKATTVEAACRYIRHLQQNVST

| Sequence | relative binding free energy [kcal/mol] |
| --- | --- |
| CGGATCACGTGTTTGT | 0.21 |
| GTTTGCACGTGATGGC | 0.18 |
| GCGTTCACGTGAGTGA | 0.37 |
| GAGAGCACGTGGTCAG | -0.09 |
| TTAGGCACGTGCGTAG | -0.31 |
| AGGAGCACGTGCAGGG | -0.2 |
| ATGCTCACGTGGGGAG | 0.22 |
| AATTTCACGTGGGCAG | 0.24 |
| TAGCTCACGTGGGGTC | 0.12 |
| TTTGTCACGTGGATGC | -0.02 |
| ATTTACACGTGGGGTC | -0.06 |
| GTGAGCACGTGGTCTG | -0.07 |
| TTGCTCACGTGGTATG | -0.04 |
| AGGGTCACGTGTTATG | 0.06 |
| GGCTTCACGTGTCTGG | 0.34 |
| CTTTTCACGTGCGGAG | 0.28 |
| GATAACACGTGGATGG | -0.08 |
| TACTTCACGTGATTTG | 0.43 |
| TGGGGCACGTGGTGTG | -0.13 |

| Sequence | relative binding free energy [kcal/mol] |
| --- | --- |
| TAAGTCACGTGTCATT | 0.14 |
| TTCTGCACGTGAGGAT | 0.17 |
| AGGGACACGTGACTGT | 0.25 |
| ATGTCCACGTGGAGTG | 0.06 |
| TATATCACGTGATATG | 0.29 |
| CAAGTCACGTGCGGTT | 0.09 |
| CTGGACACGTGAGGAG | 0.21 |
| CGTATCACGTGTGTAT | 0.03 |
| AATATCACGTGGGAGA | 0.12 |
| TGGGGCACGTGAAGTA | 0.09 |
| GATATCACGTGGTGGG | 0.15 |
| ATTAGCACGTGGCGTG | -0.2 |
| TTTTTCACGTGATTCC | 0.53 |
| AGGAACACGTGTCTGT | 0.12 |
| ACTAGCACGTGTTGTT | 0.04 |
| GATTTCACGTGTTTCG | 0.31 |
| GTTGTCACGTGTGTTT | 0.25 |
| AGCATCACGTGGGTTT | 0.1 |
| GGCGGCACGTGCTGGA | -0.13 |

| Sequence | relative binding free energy [kcal/mol] |
| --- | --- |
| AAGTGCACGTGGGTTC | -0.15 |
| ATATTCACGTGTGGGT | 0.32 |
| AGTTGCACGTGCTGTG | -0.14 |
| TTTTTCACGTGACATT | 0.34 |
| GTATGCACGTGAGCTA | 0.3 |
| GTAGACACGTGTTCGT | 0.08 |
| TGTGACACGTGGGACG | -0.26 |
| ATTATCACGTGTGGTA | 0.18 |
| CATGGCACGTGAGGAG | 0.15 |
| TTATTCACGTGAATAT | 0.38 |
| GGTCACACGTGGTGCA | 0.09 |
| TGTCACACGTGTGTAT | 0.18 |
| TCTTGCACGTGTTGAA | 0.05 |
| TCTGGCACGTGCTGGT | -0.16 |
| TTAGTCACGTGGGGGG | -0.06 |
| GTTTCCACGTGGGTGG | 0.08 |
| GGGTCCACGTGTGATA | 0.18 |
| GTTGACACGTGTGATC | 0.4 |
| TCTATCACGTGGTAGT | 0.14 |

— the BET-seq Pho4 binding data (Le et al. 2018)
